{"source": "the supplement of paper PMC12632987", "binders": {"B1": {"name": "GBRAP_39_5642 (protein)", "chain": "EEEEENELIFSYLLAVGAKIQYEKGWSYEEVKKETLELLDELAKKYPEIKELLEELKELVEKGDEETVLAAYGLVKLAKEGTPVEEVKENAEKLIKYLKS"}, "B2": {"name": "GBRAP_52_5966 (protein)", "chain": "MKEKAEKAVKEAIALEKAGDREGLRALLREIARTWNDEELEELAKALAKAAKEGDEETAEIALEVAILLADVLEEEGRDPRLAADLLGLVATAAYEKELE"}, "B3": {"name": "GBRAP_160_4356 (protein)", "chain": "MEKTEKLIKEIKEATEEVIKEVDKLSREEVGTIAAGLYGEIAMEAVEDESMSDEVEDIIVEARDEILKLLKEMKDASREEIKKKIKEITEKAIEKIKEAS"}, "B4": {"name": "GBRAP_166_4980 (protein)", "chain": "DQEKKVEALKKLIKERAEKAKEADYEEKLELLAEVAEEIKKAKEEGLSKENLKELIKFTLKEFSKVGIKLSDVFGALSIIADLDEEEIELLLEAEKEVRA"}, "B5": {"name": "GBRAP_160_4256 (protein)", "chain": "SEKVEEIAKELREEMEEIIEEAAELTPEELAAAIAGAIGSAIMELIELGLITEEQEDKLIEIEDEAVATALRKAELSLEELKARLKELLEEFLKVLEEAK"}, "B6": {"name": "GBRAP_139_3754 (protein)", "chain": "DATAAAAAEMAAAVADPSTTLEEIEALFRKIVAELDEEGIKEVIKAMAKALVTKPVETIEEIEEMVLKILKEAGKSEDVQDFAEAEFNGAAALSAAREEA"}, "B7": {"name": "GBRAP_160_4425 (protein)", "chain": "SPTVERVAEILDETEELVLEEVEEGRWENALTAARVGAGEVLLEVDSDPRVSEEAEEKVAAILDATVATLAANPDATPEEVRALLRETRAAVVETLEADL"}, "B8": {"name": "GBRAP_14_3872 (protein)", "chain": "KEEALAIALEEIEEMAELLIEAIPEKKEEIEKMKERLVAAAEEFFTSLEDPEEAAEALEAKANAEIAEFTKTLSPEDAALAKAIAGTELGNLRLEIDELL"}, "B9": {"name": "GBRAP_83_6992 (protein)", "chain": "KEKIVVAAPGDRIEEAVEIAIDLTKEEGLEVDIEIIARREDLPRVLEAARKLAEAGINTELTVILEGATEEEAEKLEAEIKAIAEKYGVDIKVTIHLVEP"}, "B10": {"name": "GBRAP_42_5729 (protein)", "chain": "MIAITLEIVADTQEEAQAMVDAALAEDERLLKEKGVVVRIEVAVPEGLSPEIKAKEAASAERAKTATHESDWVGVANTLEEVPKTIEAVADEALAELAEK"}, "B11": {"name": "GBRAP_78_6704 (protein)", "chain": "EVEELLDKAIEELNKAAKLLVPLKTELANDALGEIVDASSYLVESEENGVDKELVKEALEEVEKAIELAKKLDSEKKPEILEHLEKAKELIKKALELLEK"}, "B12": {"name": "GBRAP_52_5880 (protein)", "chain": "KLEEAIKKLKEAIEAMKAGDKEEAEKILKEIVEEFDEETILKAVEKLAEEIKSKSLEEAKAFYETAEKLAEILLEEGGSEEVASYIEALAGAALYEVEQK"}, "B13": {"name": "GBRAP_9_7174 (protein)", "chain": "LKKAAEKAIKEAKEAKAFILEIAPEAAAGAVAEAFDELIKTLEEAKADPSVTKEEFEKALEEGIAKIIANAKAHLSPEVAAAVETEMYTIEYEADEELDK"}, "B14": {"name": "GBRAP_11_2810 (protein)", "chain": "KKEKLKKAAELAEKAAKAVEKLLKEGVDNEELLKKIEELLKELEKLAKEYLDKGTQKLVEIAKELLKEAKEDKENAKKYLEELLATLRVALGNVLLEIEE"}, "B15": {"name": "GBRAP_160_4542 (protein)", "chain": "SEKVEELLEDLDEETEELKELVDKVSNEELINFVDVSIGSLILEGIELGLFSDETEDEIDEIRDETLARLKENKNASPEEKKAIIEEAAEKIKEVIKKSS"}, "B16": {"name": "GBRAP_184_5312 (protein)", "chain": "EVKEVVIEAETAEEAIKKLEEAAKKAKEEGVKLNVYLFLKNVDVEGFKRIAEKIKELKEEGIIENAVVHIEDDKSEEEIDKFIEIADAAGIKLVVALPDE"}, "B17": {"name": "GBRAP_160_4328 (protein)", "chain": "SESVEKLKKEIKEEFEELKELIKGESIEQRKVLLAGTFGEILMLLSENPDVSDEALDKVDEIEDEALKTLDENPDLSEEEIKKLIEESEEKVLKTLDELA"}, "B18": {"name": "GBRAP_78_6724 (protein)", "chain": "KLEELIEEAIEELNKAAKLLKEFPEEDRNELLDLIVDAMSYLLEAEEEGGDLEELEKALEEVEKAIELVKKLNREEAKPLLEELEKARKLLEEAIKLLKE"}, "B19": {"name": "GBRAP_139_3687 (protein)", "chain": "SALEAKIAEAVALAERTLTEGEAPLRALARLLASLNEEDRIAVARAIGERLLDLPYDTAEAIFDRLEAIAREELGDEDLAEIIEAERNELLARIAVREEE"}, "B20": {"name": "GBRAP_52_5994 (protein)", "chain": "MREEAREVAERAVALRLAGREEEARALLEEVAETKSEEFLEMVARELAELARTADPATRDAIVDVAIMLEDIMHEKGFDEAIADTNLARVAAAAYDALQR"}, "B21": {"name": "GBRAP_83_6994 (protein)", "chain": "KEKITVAAPGDHLAEAADAAIDLHKEEGYEVELEFLITPEDREAVLAAVERLAKAGIETEVTVLAEGFTPEELAELEAELKAIAAAAGAKIKITVEGIEL"}, "B22": {"name": "GBRAP_83_6962 (protein)", "chain": "MEEVVVATTKDHVESAAEAARDLATEEGYKVTVELLGDPEEVLESAKIVAEALKDLPNVEIRAVIENVRKEEAEKTKEELKKIGEKYGLKIEFEAELVEP"}, "B23": {"name": "GBRAP_52_6262 (protein)", "chain": "MREELRRKAEEALALVKEGKEEEARKLLKELAEELNEEEFELFVDEVARLAEEAAPEDLEAMERLVELAAEEFEEAGKPEELVSLLEAEGYGALYKRRQA"}, "B24": {"name": "GBRAP_128_3574 (protein)", "chain": "SSEEVLEKAKKLIKKIIESDVEEAKKYAKELVELLKEADPETREKIVEEILKALPKLTVEKLETLADVFREKMPEADPEVANLLAEIAVEALNLAVEKEE"}, "B25": {"name": "GBRAP_125_3111 (protein)", "chain": "DMEEVLEALAIVLRALGFDDDEIEEALELARRYGIKGTMIAVALAEGYEEVADLLEKLTEEEVKQALLETAAAIKANPELTPEEVKELLEEVLKKLLAAS"}, "B26": {"name": "GBRAP_52_5999 (protein)", "chain": "AEARIAAVAEALVAAVLAGDEAGLRALLREAAATLTPEEIVAMVARATRLLARDPRATDEDLRRFIDTVEEVLEEAGQPDEVRADVTGAIARALAEAEAE"}, "B27": {"name": "GBRAP_160_4719 (protein)", "chain": "SAAVERAIEAVEEAIEEVLELRPEVSAEELANAADTIIGSEILELIEEGELNEELEEALDEIRDELVATILATGDKPREEFEKALKEVLEEAKKRLEALS"}, "B28": {"name": "GBRAP_125_3070 (protein)", "chain": "PSAEALANLATLARALGFSDSEVAEAVAIAAASSIKQTLVAIALAEDAEELADAVEKLTEAQAEQLLAQVAAELAAHPDLTPEEVLARALELANALVAAA"}, "B29": {"name": "GBRAP_45_5805 (protein)", "chain": "SAEKQKAYEEALKKLEEAIKEAEKLKKLDPEFFTKLKKRLEELLKRLKEHKNDAAAIEEIAKELEALLKEALANPKASGELLEALLEAANKVWELGELLK"}}, "note": "Whole data set: some 4,500 sequences, median “median log2 fold change of GCK-ALFA target abundance (FLAG IP / Myc IP barcode read proportion)” near 0.078, cut for the lowest 2% near -0.6. Some of the results follow.", "data": [{"target": "GABARAP, O95166", "sequence (O95166 whole entry, the tested form may be a part)": "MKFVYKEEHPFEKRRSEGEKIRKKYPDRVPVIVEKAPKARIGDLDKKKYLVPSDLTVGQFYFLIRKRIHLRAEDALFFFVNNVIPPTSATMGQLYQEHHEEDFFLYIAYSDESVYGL", "assay": "median log2 fold change of GCK-ALFA target abundance (FLAG IP / Myc IP barcode read proportion) (log2 ratio); each designed protein is fused to an ALFA-tag nanobody in HEK293 cells to bring the named protein to FLAG-tagged glucokinase (GCK); Myc marks an untargeted standard; higher = target protein stabilised (more abundant)", "conditions": "target protein: 3xFLAG-MCP-GCK-ALFA reporter; HEK293 landing pad (RPLP)", "in_short": "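An ALFA-nanobody-fused binder library was recombined into HEK293 landing-pad cells and induced with 2 μg mL^−1 doxycycline. Cells were transfected with a plasmid expressing a FLAG-tagged target and a Myc-tagged standard. After 48 h, lysates underwent anti-FLAG and anti-Myc immunoprecipitation, and circular RNA barcodes were reverse transcribed, amplified and sequenced. Target abundance is the per-binder median log2 ratio of FLAG to Myc barcode read proportions. Barcodes needed ≥10^−7 proportion in both replicates, binders ≥3 barcodes per replicate, and a 10^−6 pseudocount was added; the two replicates were pooled.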", "values": [{"binder": "B1", "median log2 fold change": -0.188}, {"binder": "B2", "median log2 fold change": -0.188}, {"binder": "B3", "median log2 fold change": 0.156}, {"binder": "B4", "median log2 fold change": 0.183}, {"binder": "B5", "median log2 fold change": -0.154}, {"binder": "B6", "median log2 fold change": 0.287}, {"binder": "B7", "median log2 fold change": -0.375}, {"binder": "B8", "median log2 fold change": -0.23}, {"binder": "B9", "median log2 fold change": 0.0198}, {"binder": "B10", "median log2 fold change": -0.261}, {"binder": "B11", "median log2 fold change": 0.211}, {"binder": "B12", "median log2 fold change": 0.268}, {"binder": "B13", "median log2 fold change": -0.218}, {"binder": "B14", "median log2 fold change": 0.179}, {"binder": "B15", "median log2 fold change": -0.0705}, {"binder": "B16", "median log2 fold change": 0.275}, {"binder": "B17", "median log2 fold change": -0.0431}, {"binder": "B18", "median log2 fold change": 0.0739}, {"binder": "B19", "median log2 fold change": 0.162}, {"binder": "B20", "median log2 fold change": 0.194}, {"binder": "B21", "median log2 fold change": 0.106}, {"binder": "B22", "median log2 fold change": 0.214}, {"binder": "B23", "median log2 fold change": -0.0543}, {"binder": "B24", "median log2 fold change": 0.241}, {"binder": "B25", "median log2 fold change": -0.903}, {"binder": "B26", "median log2 fold change": 0.173}, {"binder": "B27", "median log2 fold change": 0.0545}, {"binder": "B28", "median log2 fold change": -0.0825}, {"binder": "B29", "median log2 fold change": 0.13}]}]}
